Reference: the antibiotic and cytotoxicity screens of Wong et al. (2023)
This is one part of the list.

What was measured:
[1] = system: HSkMC (human skeletal muscle cells); experiment: cytotoxicity call (relative viability < 0.9); details: 10 µM
[2] = system: HepG2; experiment: cytotoxicity call (relative viability < 0.9); details: 10 µM
[3] = system: S. aureus RN4220; experiment: growth inhibition call (relative growth <= 0.2); details: 50 µM

## COc1cc(N2CCC(N(C)C)CC2)ccc1Nc1ncc(Cl)c(Nc2ccccc2P(C)(C)=O)n1
[1]
  cytotoxicity call: active
[2]
  cytotoxicity call: active
[3]
  growth inhibition call: inactive

## CN(C)C(=O)N1CCC2(CC1)CC1(CCN(S(=O)(=O)C3CC3)CC1)N(C)C2=O
[1]
  cytotoxicity call: inactive
[2]
  cytotoxicity call: inactive
[3]
  growth inhibition call: inactive

## C[C@H]1CN([C@@H](C)CO)C(=O)c2cccc(NC(=O)Nc3ccc(C(F)(F)F)cc3)c2O[C@H]1CN(C)C(=O)Nc1ccccc1
[1]
  cytotoxicity call: inactive
[2]
  cytotoxicity call: inactive
[3]
  growth inhibition call: active

## C[C@@H]1CN([C@@H](C)CO)C(=O)Cc2cc(NS(=O)(=O)c3ccccc3)ccc2O[C@@H]1CN(C)Cc1ccc2c(c1)OCO2
[1]
  cytotoxicity call: inactive
[2]
  cytotoxicity call: inactive
[3]
  growth inhibition call: inactive

## COc1ccc(CN(C)C[C@H]2OCCCC[C@H](C)Oc3ccc(NS(=O)(=O)c4ccc(F)cc4)cc3C(=O)N([C@H](C)CO)C[C@@H]2C)cc1
[1]
  cytotoxicity call: inactive
[2]
  cytotoxicity call: inactive
[3]
  growth inhibition call: inactive

## CO[C@H]1CN(C)C(=O)c2ccc(NS(=O)(=O)CC(F)(F)F)cc2OC[C@@H](C)N(C(=O)NC(C)C)C[C@@H]1C
[1]
  cytotoxicity call: inactive
[2]
  cytotoxicity call: inactive
[3]
  growth inhibition call: inactive

## Cc1noc(C)c1S(=O)(=O)Nc1cccc2c1O[C@H](CN(C)Cc1ccncc1)[C@H](C)CN([C@@H](C)CO)C2=O
[1]
  cytotoxicity call: inactive
[2]
  cytotoxicity call: inactive
[3]
  growth inhibition call: inactive

## COc1ccc(CN(C)C[C@@H]2OCCCC[C@H](C)Oc3ccc(NC(=O)Nc4ccccc4)cc3C(=O)N([C@H](C)CO)C[C@@H]2C)cc1
[1]
  cytotoxicity call: inactive
[2]
  cytotoxicity call: inactive
[3]
  growth inhibition call: inactive

## C[C@H]1CN([C@@H](C)CO)C(=O)c2cc(NC(=O)Nc3cccc4ccccc34)ccc2O[C@@H]1CN(C)Cc1ccc(C(F)(F)F)cc1
[1]
  cytotoxicity call: inactive
[2]
  cytotoxicity call: inactive
[3]
  growth inhibition call: inactive

## Cc1cc(C(=O)O)cc(S(N)(=O)=O)c1
[1]
  cytotoxicity call: inactive
[2]
  cytotoxicity call: active
[3]
  growth inhibition call: inactive

## C[C@@H]1CN([C@@H](C)CO)C(=O)CCCn2cc(nn2)CO[C@H]1CN(C)C(=O)Nc1ccc(C(F)(F)F)cc1
[1]
  cytotoxicity call: inactive
[2]
  cytotoxicity call: inactive
[3]
  growth inhibition call: inactive

## COc1cccc(-c2ccc3c(c2)O[C@H](CN(C)C(=O)C2CCC2)[C@@H](C)CN([C@@H](C)CO)S3(=O)=O)c1
[1]
  cytotoxicity call: inactive
[2]
  cytotoxicity call: inactive
[3]
  growth inhibition call: inactive

## O=S1(=O)CCN(CC2CCCC2)CC1
[1]
  cytotoxicity call: inactive
[2]
  cytotoxicity call: inactive
[3]
  growth inhibition call: inactive

## C[C@@H]1CN([C@@H](C)CO)C(=O)Cc2cc(NC(=O)Cc3ccccc3)ccc2O[C@@H]1CN(C)S(=O)(=O)c1cn(C)cn1
[1]
  cytotoxicity call: inactive
[2]
  cytotoxicity call: inactive
[3]
  growth inhibition call: inactive

## Cn1cnc(S(=O)(=O)N2C[C@H](O)COC[C@H]3O[C@@H](CC(=O)N4CCN(c5ccccc5)CC4)CC[C@@H]32)c1
[1]
  cytotoxicity call: inactive
[2]
  cytotoxicity call: inactive
[3]
  growth inhibition call: inactive

## CO[C@H]1CN(C)C(=O)c2cc(NS(C)(=O)=O)ccc2OC[C@H](C)N(S(C)(=O)=O)C[C@H]1C
[1]
  cytotoxicity call: inactive
[2]
  cytotoxicity call: inactive
[3]
  growth inhibition call: inactive

## Cc1ccc(S(=O)(=O)N(C)C[C@H]2Oc3ccc(NC(=O)Nc4ccc(C(F)(F)F)cc4)cc3C(=O)N([C@@H](C)CO)C[C@H]2C)cc1
[1]
  cytotoxicity call: inactive
[2]
  cytotoxicity call: active
[3]
  growth inhibition call: inactive

## C[C@H]1CCCCO[C@@H](CN(C)Cc2ccccc2)[C@@H](C)CN([C@@H](C)CO)C(=O)c2cc(NC(=O)Nc3ccc(F)cc3)ccc2O1
[1]
  cytotoxicity call: active
[2]
  cytotoxicity call: active
[3]
  growth inhibition call: inactive

## O=C(N[C@H](NC(=S)Nc1ccc(F)c([N+](=O)[O-])c1)C(Cl)(Cl)Cl)C(c1ccccc1)c1ccccc1
[1]
  cytotoxicity call: active
[2]
  cytotoxicity call: active
[3]
  growth inhibition call: inactive

## CCCN(C)C[C@H]1OCCCC[C@@H](C)Oc2ccc(NC(=O)Nc3ccc(F)cc3)cc2C(=O)N([C@@H](C)CO)C[C@H]1C
[1]
  cytotoxicity call: inactive
[2]
  cytotoxicity call: inactive
[3]
  growth inhibition call: active

## C[C@@H]1CN([C@@H](C)CO)C(=O)c2cc(NC(=O)c3ccncc3)ccc2O[C@@H](C)CCCCO[C@@H]1CN(C)S(=O)(=O)c1cn(C)cn1
[1]
  cytotoxicity call: inactive
[2]
  cytotoxicity call: inactive
[3]
  growth inhibition call: inactive

## O=C(O)c1ccnc2nc[nH]c12
[1]
  cytotoxicity call: inactive
[2]
  cytotoxicity call: inactive
[3]
  growth inhibition call: inactive

## C[C@@H]1CCCCO[C@H](CN(C)C(=O)c2ccccc2)[C@@H](C)CN([C@@H](C)CO)C(=O)c2cc(NC(=O)NC3CCCCC3)ccc2O1
[1]
  cytotoxicity call: inactive
[2]
  cytotoxicity call: inactive
[3]
  growth inhibition call: inactive

## C[C@H]1CCCCO[C@@H](CN(C)Cc2ccc(C(F)(F)F)cc2)[C@@H](C)CN([C@@H](C)CO)C(=O)c2cc(NS(=O)(=O)c3ccccc3)ccc2O1
[1]
  cytotoxicity call: inactive
[2]
  cytotoxicity call: inactive
[3]
  growth inhibition call: inactive

## C[C@@H]1CCCCO[C@@H](CN(C)Cc2ccccc2)[C@@H](C)CN([C@@H](C)CO)C(=O)c2cc(NC(=O)C3CCCCC3)ccc2O1
[1]
  cytotoxicity call: inactive
[2]
  cytotoxicity call: inactive
[3]
  growth inhibition call: inactive

## CO[C@@H]1CN(C)C(=O)c2ccc(NC(=O)Nc3ccccc3)cc2OC[C@@H](C)N(C(=O)CN(C)C)C[C@H]1C
[1]
  cytotoxicity call: inactive
[2]
  cytotoxicity call: inactive
[3]
  growth inhibition call: inactive

## Cc1c(N(C)C)c(=O)n(-c2ccccc2)n1C
[1]
  cytotoxicity call: inactive
[2]
  cytotoxicity call: inactive
[3]
  growth inhibition call: inactive

## Cc1ccc(S(=O)(=O)N(C)C[C@@H]2Oc3c(NC(=O)C4CCOCC4)cccc3C(=O)N([C@@H](C)CO)C[C@@H]2C)cc1
[1]
  cytotoxicity call: inactive
[2]
  cytotoxicity call: inactive
[3]
  growth inhibition call: inactive

## COc1ccc(S(=O)(=O)Nc2ccc3c(c2)C(=O)N([C@@H](C)CO)C[C@H](C)[C@H](CN(C)Cc2ccccc2)OCCCC[C@@H](C)O3)cc1
[1]
  cytotoxicity call: inactive
[2]
  cytotoxicity call: inactive
[3]
  growth inhibition call: inactive

## COc1cccc(S(=O)(=O)N2C[C@@H](O)COC[C@H]3O[C@H](CC(=O)N4CCN(c5ccccc5)CC4)CC[C@@H]32)c1
[1]
  cytotoxicity call: inactive
[2]
  cytotoxicity call: inactive
[3]
  growth inhibition call: inactive

## COc1ccc(C(C)=O)c(O)c1
[1]
  cytotoxicity call: inactive
[2]
  cytotoxicity call: inactive
[3]
  growth inhibition call: inactive

## O=C(C[C@H]1CC[C@@H]2[C@H](COC[C@H](O)CN2S(=O)(=O)c2ccccc2)O1)NCc1ccc(-c2ccccc2)cc1
[1]
  cytotoxicity call: inactive
[2]
  cytotoxicity call: inactive
[3]
  growth inhibition call: inactive

## C[C@H]1CN([C@@H](C)CO)C(=O)c2cc(NC(=O)CCCN(C)C)ccc2O[C@@H]1CN(C)Cc1ccc2c(c1)OCO2
[1]
  cytotoxicity call: inactive
[2]
  cytotoxicity call: inactive
[3]
  growth inhibition call: inactive

## C[C@H](CO)N1C[C@H](C)[C@@H](CN(C)S(=O)(=O)c2cn(C)cn2)Oc2ccc(NC(=O)c3ccncc3)cc2CC1=O
[1]
  cytotoxicity call: inactive
[2]
  cytotoxicity call: inactive
[3]
  growth inhibition call: inactive

## COc1ccc(S(=O)(=O)N(C)C[C@H]2Oc3ccc(NS(=O)(=O)c4ccc(F)cc4)cc3C(=O)N([C@H](C)CO)C[C@H]2C)cc1
[1]
  cytotoxicity call: inactive
[2]
  cytotoxicity call: inactive
[3]
  growth inhibition call: inactive

## N=c1ccn2c(n1)O[C@H]1[C@H](O)[C@@H](CO)O[C@H]12
[1]
  cytotoxicity call: active
[2]
  cytotoxicity call: inactive
[3]
  growth inhibition call: inactive

## CN1C(=O)c2cc(NC(=O)C3CCOCC3)ccc2OC[C@H]2O[C@@H](CC(=O)NCc3ccc4c(c3)OCO4)CC[C@@H]21
[1]
  cytotoxicity call: inactive
[2]
  cytotoxicity call: inactive
[3]
  growth inhibition call: inactive

## C[C@@H]1CN([C@@H](C)CO)C(=O)c2cccc(NS(=O)(=O)c3ccccc3)c2O[C@@H]1CN(C)CC1CC1
[1]
  cytotoxicity call: inactive
[2]
  cytotoxicity call: inactive
[3]
  growth inhibition call: inactive

## CC(C)NC(=O)N[C@H]1CC[C@@H](CCN)O[C@H]1CO
[1]
  cytotoxicity call: inactive
[2]
  cytotoxicity call: inactive
[3]
  growth inhibition call: inactive

## C[C@@H]1CN([C@@H](C)CO)C(=O)c2cccc(NC(=O)NC3CCCCC3)c2O[C@H]1CN(C)Cc1ccc(C(F)(F)F)cc1
[1]
  cytotoxicity call: inactive
[2]
  cytotoxicity call: inactive
[3]
  growth inhibition call: inactive

## C[C@H]1CN([C@@H](C)CO)C(=O)Cc2cc(NC(=O)C3CCCCC3)ccc2O[C@@H]1CN(C)Cc1ccc(Oc2ccccc2)cc1
[1]
  cytotoxicity call: inactive
[2]
  cytotoxicity call: inactive
[3]
  growth inhibition call: inactive

## C[C@H](CO)N1C[C@H](C)[C@H](CN(C)Cc2ccc(-c3ccccc3)cc2)Oc2ccc(NC(=O)CCCCCC(=O)Nc3ccccc3N)cc2C1=O
[1]
  cytotoxicity call: inactive
[2]
  cytotoxicity call: active
[3]
  growth inhibition call: inactive

## C[C@H]1CN([C@@H](C)CO)C(=O)Cc2cc(NS(=O)(=O)c3ccccc3)ccc2O[C@@H]1CN(C)S(=O)(=O)c1ccc(F)cc1
[1]
  cytotoxicity call: inactive
[2]
  cytotoxicity call: inactive
[3]
  growth inhibition call: inactive

## C[C@H]1CCCCO[C@@H](CN(C)C(=O)c2ccccc2)[C@@H](C)CN([C@@H](C)CO)C(=O)c2cc(NC(=O)c3ccccc3)ccc2O1
[1]
  cytotoxicity call: inactive
[2]
  cytotoxicity call: inactive
[3]
  growth inhibition call: inactive

## COc1ccc(NC(=O)N(C)C[C@H]2OCCCC[C@H](C)Oc3ccc(NC(=O)Nc4ccc(C(F)(F)F)cc4)cc3C(=O)N([C@@H](C)CO)C[C@@H]2C)cc1
[1]
  cytotoxicity call: inactive
[2]
  cytotoxicity call: inactive
[3]
  growth inhibition call: inactive

## C[C@H](CO)N1C[C@H](C)[C@@H](CN(C)C(=O)Nc2ccc(C(F)(F)F)cc2)Oc2c(NC(=O)Nc3ccc(C(F)(F)F)cc3)cccc2C1=O
[1]
  cytotoxicity call: active
[2]
  cytotoxicity call: active
[3]
  growth inhibition call: inactive

## CO[C@@H]1CN(C)C(=O)c2cc(NS(C)(=O)=O)ccc2OC[C@@H](C)N(C(=O)C2CCOCC2)C[C@H]1C
[1]
  cytotoxicity call: inactive
[2]
  cytotoxicity call: inactive
[3]
  growth inhibition call: inactive

## C[C@H](CO)N1C[C@H](C)[C@@H](CN(C)C(=O)NC2CCCCC2)Oc2ccc(NC(=O)CCCN(C)C)cc2C1=O
[1]
  cytotoxicity call: inactive
[2]
  cytotoxicity call: inactive
[3]
  growth inhibition call: inactive

## C[C@@H]1CN([C@H](C)CO)C(=O)c2cc(NC(=O)Cc3ccccc3)ccc2O[C@H]1CN(C)S(=O)(=O)c1ccccc1
[1]
  cytotoxicity call: inactive
[2]
  cytotoxicity call: inactive
[3]
  growth inhibition call: inactive

## CCCCCCCCCCC/C=C\C/C=C\CCCC(=O)O
[1]
  cytotoxicity call: inactive
[2]
  cytotoxicity call: inactive
[3]
  growth inhibition call: inactive

## C[C@@H]1CN([C@@H](C)CO)C(=O)c2cc(NC(=O)NC3CCCCC3)ccc2O[C@@H](C)CCCCO[C@@H]1CN(C)S(=O)(=O)c1ccc(F)cc1
[1]
  cytotoxicity call: inactive
[2]
  cytotoxicity call: inactive
[3]
  growth inhibition call: inactive

## CCCNC(=O)[C@@]1(c2ccc([N+](=O)[O-])cc2)CC(=O)N(CC23CC4CC(CC(C4)C2)C3)[C@@H]1c1ccc(CO)cc1I
[1]
  cytotoxicity call: inactive
[2]
  cytotoxicity call: inactive
[3]
  growth inhibition call: inactive

## CCCCOC(=O)[C@@H](N)CCC(=O)O
[1]
  cytotoxicity call: inactive
[2]
  cytotoxicity call: inactive
[3]
  growth inhibition call: inactive

## O=C(O)C=C(CC(=O)O)C(=O)O
[1]
  cytotoxicity call: inactive
[2]
  cytotoxicity call: inactive
[3]
  growth inhibition call: inactive

## Cc1ccc(S(=O)(=O)Nc2ccc3c(c2)C(=O)N([C@@H](C)CO)C[C@@H](C)[C@H](CN(C)C(=O)Nc2c(C)noc2C)OCCCC[C@H](C)O3)cc1
[1]
  cytotoxicity call: inactive
[2]
  cytotoxicity call: inactive
[3]
  growth inhibition call: inactive

## CCN([NH2+][O-])c1ccc(O)c(O)c1
[1]
  cytotoxicity call: inactive
[2]
  cytotoxicity call: inactive
[3]
  growth inhibition call: inactive
